Experimental findings from the supplement of paper PMC4604168 (melanoma cell lines) are described below.

What all share (experiment): cell count relative to DMSO control; melanoma cells; higher = more viable cells
What all share (conditions): library dose: low library concentration; 72 h

For assay [1], the system named is WM115.
Assay [2] relates to WM1716.
Assay [3] has as its system WM1745.
Assay [4] deals with WM3526.
Assay [5] relates to WM3619.
In assay [6] the test system is WM451Lu.

Molecules are shown by their SMILES. The list shows a part of the results. Most values come without repeats; read them as rough.
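Further: cell number obtained by counting DAPI-stained nuclei in high-throughput microscope images with image analysis software, screen run in 1,536-well plates.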

Take `C[C@@H](Oc1cc(-c2cnn(C3CCNCC3)c2)cnc1N)c1c(Cl)ccc(F)c1Cl` [Crizotinib] + O=C(O)C(=O)Nc1sc2c(c1C(=O)O)CCNC2 [TCS401] (first compound 0.2 µM, partner dose 1.66667 µM): the cell count in assay [1] was 95.8%; in assay [2], 124%; in assay [3], 86.2%; in assay [4] it was 84.7%; in assay [5], 119%; in assay [6] it was 104%.

For the compound `CS(=O)(=O)CCNCc1ccc(-c2ccc3ncnc(Nc4ccc(OCc5cccc(F)c5)c(Cl)c4)c3c2)o1` [lapatinib] + O=C(Nc1cccc(Cl)c1)Nc1ncc(CCNc2ncnc3ccsc23)s1 [SNS314] (first compound 0.8 µM, partner dose 0.0008 µM), the cell count was 92% in assay [1]; 114% in assay [2]; 97.5% in assay [3]; 102% in assay [4]; 113% in assay [5]; 95.2% in assay [6].

In the case of `C[C@@H](Oc1cc(-c2cnn(C3CCNCC3)c2)cnc1N)c1c(Cl)ccc(F)c1Cl` [Crizotinib] + C=CCNC1=C2C[C@@H](C)C[C@H](OC)[C@H](O)[C@@H](C)/C=C(\C)[C@H](OC(N)=O)[C@@H](OC)/C=C\C=C(/C)C(=O)NC(=CC1=O)C2=O [Tanespimycin] (first compound 0.2 µM, partner dose 0.002 µM), the cell count amounted to 94.6% in assay [1]; 129% in assay [2]; 98.9% in assay [3]; 119% in assay [4]; 88.4% in assay [5]; 99% in assay [6].

`C=CCNC1=C2C[C@@H](C)C[C@H](OC)[C@H](O)[C@@H](C)/C=C(\C)[C@H](OC(N)=O)[C@@H](OC)/C=C\C=C(/C)C(=O)NC(=CC1=O)C2=O` [Tanespimycin] + CCc1ccc(CCOc2ccc(CC3SC(=O)NC3=O)cc2)nc1 [pioglitazone] (first compound 0.002 µM, partner dose 2 µM): the cell count in assay [1] came out at 91.8%; in assay [2], 90.4%; in assay [3], 97%; in assay [4] it was 98.8%; in assay [5], 100%; in assay [6], 98.4%.

For `CN1CCN(c2ccc3nc(-c4c(N)c5c(F)cccc5[nH]c4=O)[nH]c3c2)CC1` [Dovitinib] + CCN(CC)CCCCNc1ncc2cc(-c3cc(OC)cc(OC)c3)c(NC(=O)NC(C)(C)C)nc2n1 [PD173074] (first compound 0.1 µM, partner dose 0.1 µM), the cell count came out at 108% in assay [1]; 121% in assay [2]; 93.6% in assay [3]; 91.1% in assay [4]; 120% in assay [5]; 98.1% in assay [6].
